# Measured values: PubChem BioAssay AID588795 (National Center for Advancing Translational Sciences (NCATS), 2011)
# Screen size: about 390,000 compounds; about 1,400 (0.36%) were called active. This list was built around the results that the source calls inconclusive (neither active nor inactive); the mix of calls is not that of the screen. Calls come from the whole dose curve; as a rule, active = well fitted inhibition curve with a large enough effect; inconclusive = small, poorly fitted or top-dose-only effect; inactive = no such curve, though single readings can be large or run the other way. Where the call is inconclusive, the potency comes from a doubtful curve fit.
# Target: Flap endonuclease 1 (Homo sapiens) (UniProt P39748)
# Experiment: qHTS Assay for the Inhibitors of Human Flap endonuclease 1 (FEN1). Note: nearly all actives have a fitted effect of over 65% in size.
# Settings: Recombinant FEN1 flap cleavage, fluorescence, 15 min; series mostly up to 114 µM; activity change, negative = inhibition: at the top concentration
# Outline: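 Reaction started by adding substrate (50 nM final) to 10 nM enzyme after 15 min room-temperature compound preincubation. Reads at 0 and 15 min, with data normalized and fitted to a four-parameter Hill equation.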
# % is set by controls: 0 for no effect and ±100 for the full control effect; potency is the fitted concentration of half-maximal effect; tags give direction and shape of the fitted curve.
# Sequence of UniProt P39748 (P39748 whole entry, looked up): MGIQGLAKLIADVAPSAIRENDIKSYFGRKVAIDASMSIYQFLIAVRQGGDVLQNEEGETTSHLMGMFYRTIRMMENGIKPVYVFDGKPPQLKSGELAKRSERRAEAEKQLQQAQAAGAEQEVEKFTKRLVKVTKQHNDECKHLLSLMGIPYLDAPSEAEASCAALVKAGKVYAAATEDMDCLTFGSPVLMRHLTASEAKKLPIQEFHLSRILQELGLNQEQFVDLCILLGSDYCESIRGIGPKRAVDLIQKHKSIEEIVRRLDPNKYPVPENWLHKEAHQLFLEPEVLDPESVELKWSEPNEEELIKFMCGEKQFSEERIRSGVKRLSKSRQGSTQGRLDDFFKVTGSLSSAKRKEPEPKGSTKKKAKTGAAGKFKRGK
SMILES,Potency,"activity change, negative = inhibition"
COCc1cc(O)c(O)c(O)c1-c1c(COC)cc(O)c(O)c1O,active: 1.58 µM,
CN1CCc2c(c3cnc4cc(Cl)ccc4c3n2C)C1,"inconclusive: 35.5 µM [inhibitor, partial curve]",
Cc1ccc(S(=O)(=O)N(CC(=O)NCCc2ccc(Cl)cc2)c2ccccc2C)cc1,"inconclusive: 44.7 µM [inhibitor, partial curve, poor fit]",
CCOC(=O)N1CCc2c(sc3c2c(=O)n(Cc2ccccc2)c(=O)n3Cc2ccccc2Cl)C1,,inactive: 1.87%
Cn1cc(C(=O)OCC2CCN(CCNS(C)(=O)=O)CC2)c2ccccc21,"inconclusive: 0.15 µM [inhibitor, full curve, poor fit]",
O=C1c2ccccc2-c2c1c1ccccc1c(=O)n2CCO,"inconclusive: 8.91 µM [inhibitor, full curve, poor fit]",
NS(=O)(=O)c1ccc(CCNC(=O)CCS(=O)(=O)c2ccc(Br)cc2)cc1,,inactive: 11%
NC(=S)N/N=C\c1c2ccccc2cc2ccccc12,"inconclusive: 39.8 µM [inhibitor, partial curve]",
CCCCOc1ccc(S(=O)(=O)Nc2ccc(-c3ccc(N4CCC(C)CC4)nn3)cc2)cc1,,inactive: -1.83%
O=C(COc1ccccc1F)Nc1nnc(SCc2cc(=O)c3ccccc3[nH]2)s1,,inactive: 9.34%
COc1cccc(-c2nc(-c3ccccc3)nc(N3CCN(C)CC3)c2C#N)c1,"inconclusive: 89.1 µM [inhibitor, partial curve, poor fit]",
Cc1cccc(CCNC(=O)CN(c2ccc(C(C)C)cc2)S(=O)(=O)c2c(C)nn(C)c2C)c1,,inactive: 10.1%
O=c1[nH]c(/C=C\c2ccc(O)c(O)c2)nc(O)c1[N+](=O)[O-],"inconclusive: 50.1 µM [inhibitor, partial curve, poor fit]",
Oc1c(CN2CCc3ccccc3C2)cc(Cl)c2cccnc12,active: 39.8 µM,
CCOC(=O)/C(=C\C=C1/Sc2cc(OCC)c(OCC)cc2N1CC)C(C)=O,,inactive: -1.59%
C#CCNC(=O)C1=C[C@@H](c2ccc(C#C)cc2)C[C@@H](OCCCCO)O1,"inconclusive: 79.4 µM [inhibitor, partial curve, poor fit]",
CCN(CC)c1ccc(/C=C2\C(=O)c3ccc(C(=O)O)cc3C2=O)cc1,active: 39.8 µM,
CC[n+]1ccc(/C=C/c2c[nH]c3ccccc23)cc1,"inconclusive: 12.6 µM [inhibitor, full curve]",
C=C(C)C(=O)Nc1cccc(C2=NOC3(C2)C[C@@H](C(N)=O)N(C(=O)C2(C)CC2)C3)c1 (stereo not given in full),"inconclusive: 35.5 µM [inhibitor, full curve]",
COc1cc(/C=N\NC(=O)c2ccc(-c3ccccc3)cc2)cc(Br)c1O,"inconclusive: 56.2 µM [inhibitor, partial curve]",
COC(=O)c1cc2nc(-c3ccccc3)cc(C)n2n1,,inactive: 8.65%
COc1ccc(N=c2cc(-c3ccc(O)cc3)oc3ccccc23)cc1,"inconclusive: 89.1 µM [inhibitor, single point]",

SMILES,Potency,"activity change, negative = inhibition"
O=C1c2ccccc2C(=O)c2c(NCCc3ccc(O)cc3)ccc(NCCc3ccc(O)cc3)c21,"inconclusive: 21.2 µM [inhibitor, single point]",
COC(=O)c1c(NS(=O)(=O)c2ccc3ccccc3c2)sc2c1CCCC2,"inconclusive: 89.1 µM [inhibitor, single point]",
COc1cc(CNc2ncnc3c2[nH]c2ccc(C)cc23)cc(OC)c1,"inconclusive: 12.6 µM [inhibitor, full curve]",
Nc1cc([N+](=O)[O-])cc2oc(-c3ccccc3)cc12,"inconclusive: 25.1 µM [inhibitor, partial curve, poor fit]",
NC(=S)N/N=C/c1cn(-c2ccccc2)nc1-c1cccnc1,"inconclusive: 89.1 µM [inhibitor, single point]",
Cc1sc(NC(=O)Cc2ccc3c(c2)OCO3)nc1-c1ccc2c(c1)CCN2C(=O)c1cccc(F)c1,,inactive: -5.78%
O=C(O)c1ccc(Nc2cc(Cl)c3nonc3c2[N+](=O)[O-])cc1,"inconclusive: 56.2 µM [inhibitor, partial curve, poor fit]",
CC(=O)Nc1ccc(SCC(=O)N(C)CC(=O)Nc2ccccc2Cl)cc1,,inactive: 3.08%
CCn1cc(C(=O)O)c(=O)c2cc(F)c(N3CCN(C(=O)Nc4ccccc4)CC3)cc21,,inactive: -0.178%
Cc1ccc(S(=O)(=O)Nc2c(O)ccc3ccccc23)cc1,"inconclusive: 89.1 µM [inhibitor, single point]",
O=C1CC(c2ccccc2)=NN1c1nc(-c2ccccc2)cs1,"inconclusive: 79.4 µM [inhibitor, single point]",
COc1ccc(/C=N/Nc2nc(-c3cccnc3)nc3ccccc23)cc1OC,"inconclusive: 56.2 µM [inhibitor, partial curve]",
Cc1ccc(CNC(=O)C2CC(c3cc(C(F)(F)F)cc(C(F)(F)F)c3)=NO2)o1 (stereo not given),"inconclusive: 39.8 µM [inhibitor, partial curve, poor fit]",
O=C(CSC(=S)N1CCCC1)c1cc(Br)cc(Br)c1O,,inactive: -14.8%
O=C(O)CCCNc1cc(N2CCN(C3CCCCC3)CC2)c2noc3c2c1C(=O)c1ccccc1-3,"inconclusive: 11.2 µM [inhibitor, full curve]",
CCCNC(=O)Cn1sc2nc(C)cc(C)c2c1=O,active: 50.1 µM,
COc1ccc(C2CC(=O)N3CN(c4ccccc4F)CSC3=C2C#N)cc1OC (stereo not given),"inconclusive: 1 µM [inhibitor, full curve, poor fit]",
O=C(Nc1nc(-c2ccccc2)cs1)C1CCCCN1S(=O)(=O)c1ccccc1 (stereo not given),"inconclusive: 79.4 µM [inhibitor, partial curve, poor fit]",
Cc1nc2ccccc2n2c(O)c(CC(=O)O)cc12,"inconclusive: 89.1 µM [inhibitor, single point]",
CN(C)c1ccc(/C=C(\C#N)C(=O)Nc2nc3c(s2)CCN(Cc2ccccc2)C3)cc1,"inconclusive: 56.2 µM [inhibitor, partial curve]",
CCOc1ccc(C(=O)Nc2cccc(C(=O)OCc3cc(=O)n4nc(C5CC5)sc4n3)c2)cc1,,inactive: 19.3%
CCS(=O)(=O)C1=NN2C(=N)/C(=C\c3ccc(OS(=O)(=O)c4ccccc4)cc3)C(=O)N=C2S1,,inactive: -15.7%

SMILES,Potency,"activity change, negative = inhibition"
O=C1C=C(O)c2cccc(O)c2C1=O,"inconclusive: 8.91 µM [inhibitor, full curve, poor fit]",
COc1ccc(CN2CC(=O)N(c3ccc(C)c(C)c3)C2=S)cc1OC,"inconclusive: 100 µM [inhibitor, partial curve, poor fit]",
CC(C)(C)N1C(=O)Cc2c1nc(N)c1c(N)nc(N3CCCCC3CO)c(C#N)c21 (stereo not given),,inactive: -3.22%
Cc1ccc(/C=C/C(=O)Nc2ccc([N+](=O)[O-])c(NC(=O)/C=C/c3ccc(C)o3)c2)o1,"inconclusive: 79.4 µM [inhibitor, partial curve, poor fit]",
Cc1ccc2nc(-c3sc4nc(C)ccc4c3N)[nH]c2c1,"inconclusive: 79.4 µM [inhibitor, partial curve, poor fit]",
Oc1ccc(NCc2ccccc2OCc2ccccc2F)cc1,"inconclusive: 12.6 µM [inhibitor, full curve, poor fit]",
CCOC(=O)c1c(C)[nH]c(C)c1C(=O)COC(=O)c1ccc([N+](=O)[O-])s1,"inconclusive: 28.2 µM [inhibitor, partial curve, poor fit]",
FC(F)(F)c1ccc(CN2C[C@@H]3C(c4ccc(Cl)nc4)C4(c5cccnc5)CC3(C4)[C@H]2c2ccccc2)cc1 (stereo not given in full),"inconclusive: 44.7 µM [inhibitor, partial curve, poor fit]",
COc1ccc(-c2c3c(=O)n(C)c(=O)n(C)c3cn2C2CCCCC2)cc1,"inconclusive: 89.1 µM [inhibitor, partial curve, poor fit]",
FC(F)(F)c1cccc(NC(=S)NCC2COc3ccccc3O2)c1 (stereo not given),"inconclusive: 25.1 µM [inhibitor, partial curve, poor fit]",
CCSc1ccc([C@@H]2[C@H]3C(=O)N(C)C(=O)[C@H]3[C@]3(C(=O)OC)CCCCN23)cc1,"inconclusive: 50.1 µM [inhibitor, partial curve, poor fit]",
CC1Cc2ccccc2N1C(=O)CSc1nnc(-c2ccccc2Cl)o1 (stereo not given),,inactive: -14.9%
Cc1cc(C)cc(NC(=O)C(NS(=O)(=O)c2cccc3nsnc23)c2ccccc2)c1 (stereo not given),"inconclusive: 89.1 µM [inhibitor, single point]",
Cc1cc2c(C)nc(N/N=C/c3ccc(F)cc3)nc2o1,,inactive: 5.68%
COC(=O)/C=C1\S/C(=N\N=C\CC(=O)OC)NC1=O,"inconclusive: 56.2 µM [inhibitor, partial curve, poor fit]",
C/C(=N\NC(=O)c1cccc(N/N=C(\C)c2cc(O)ccc2O)c1)c1cc(O)ccc1O,"inconclusive: 56.2 µM [inhibitor, partial curve]",
Cc1ccc(/C=C2\SC(=S)N(CCCC(=O)Nc3cccc(C(=O)O)c3)C2=O)cc1,"inconclusive: 79.4 µM [inhibitor, partial curve, poor fit]",
Cc1noc(C)c1CSCC(=O)Nc1nc2c(F)cc(F)cc2s1,"inconclusive: 79.4 µM [inhibitor, partial curve]",
CCOc1ccc(CNC(=O)c2ccc(-c3nc(CSc4ccc(C)cc4)c(C)o3)cc2)cc1,,inactive: 3.12%
CCCCc1nc2sc3c(c2c(=O)[nH]1)CC(C)(C)OC3,,inactive: 7.66%
Oc1ccc(O)cc1,"inconclusive: 3.77 µM [inhibitor, partial curve, poor fit]",
